Some of the results follow.
System: T1, C. trachomatis L2/434/Bu expressing GFP (CTL2-GFP)
T1 construct: L2/434/Bu GFP intracellular growth in HeLa cells
Design: species or system HeLa; C. trachomatis total inclusion area by high-content imaging, normalised to DMSO
Details: total inclusion area; 28.5 h, 10 µM; inhibitor
Outline: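 Imaging read-out: GFP inclusions and Hoechst nuclei captured by high-content imaging after fixation. Inclusion area/number = chlamydial growth; nuclei count = host cell viability. MIC calculated per earlier method.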

| SMILES | % of control remaining |
| --- | --- |
| CCCn1c(SCc2csc(CC(=O)Nc3ccccc3C)n2)n[nH]c1=O [CBK296969] | 102.722 |
| Cc1ccc2c(c1)c(NS(C)(=O)=O)nn2Cc1ccc(C#N)cc1 [CBK048643] | 88.7151 |
| CN(C)C1Cc2cccc3nc(S(C)(=O)=O)n(c23)C1 (stereo not shown) [CBK007942] | 73.6712 |
| Cc1nn(C)cc1CN1CCCC1c1nc(N(C)C)ncc1-c1cccc(Cl)c1 (stereo not shown) [CBK286501] | 90.2414 |
| Cc1cc(Br)ccc1C(=O)N1CC(C(N)=O)CCC1C (stereo not shown) [CBK305954] | 5.586 |
| Cc1ccn(CCC(=O)N2CCC[C@@H]3NC(=O)c4ccccc4OCC/C=C/C[C@@H]32)n1 [CBK292082] | 117.437 |
| O=C(CCS(=O)(=O)c1ccccc1)Nc1ccccc1N1CCNCC1 [CBK028285T] | 94.8459 |
| N#Cc1cccc(Nc2cncc(-c3cccc(C(=O)NCCO)c3)n2)c1 [CBK037810] | 113.746 |
| CC1(C)CCCC1NC(=O)NCc1cccc(-c2nnc[nH]2)c1 (stereo not shown) [CBK305236] | 54.5618 |
| Cc1cc(OCC2CCN(C(=O)OC(C)(C)C)CC2)ccc1Br [CBK175091] | 104.065 |
| O=C(CC1CC2CCC1C2)N1CCC(O)(c2ccccn2)CC1 (stereo not shown) [CBK283833] | 94.0557 |
| Cc1nc(C)c(C(=O)NCCN2CC(C)CC(C)C2)s1 (stereo not shown) [CBK283071] | 101.579 |
| OCCNc1ncnc2c1cnn2-c1ccccc1 [CBK077741C] | 59.7895 |
| CC(=O)NC(c1nccs1)C1CCCN(CC2CCCCC2)C1 (stereo not shown) [CBK285152] | 102.941 |
| Cc1ccc2ncc(C(=O)Nc3ccc(F)cc3F)c(=O)n2c1 [CBK287286] | 110.85 |
| Cc1noc(C)c1S(=O)(=O)NCCc1c[nH]c2ccccc12 [CBK067311] | 93.7432 |
| COc1ccc([C@@]23CC[C@@H](NC(=O)c4ccc(Br)c(C)c4)C[C@@H]2N(C)CC3)cc1OC [CBK076656T] | 82.7146 |
| c1cnc(N2CCNCC2)c(OC2CCCCC2)n1 [CBK001837C] | 84.3584 |
| CC(=O)N[C@H](C(=O)N1CC[C@H]2NC(=O)[C@@H](Cc3ccccc3)NC(=O)C3(C/C=C/C[C@H]2C1)CCOCC3)[C@@H](C)OC(C)(C)C [CBK292203] | 96.934 |
| O=[N+]([O-])c1nn(-c2ccccc2)[n+]([O-])c1Nc1ccc(Br)cc1 [CBK268504] | 76.1446 |

| SMILES | % of control remaining |
| --- | --- |
| O=C(O)CCCC(=O)Nc1cccc([N+](=O)[O-])c1 [CBK261530] | 95.6998 |
| COC(=O)c1c(NC(=O)c2cnccn2)sc2c1CCC(C)C2 (stereo not shown) [CBK262654] | 101.685 |
| CN(C)c1cc(CNC(=O)c2cc3ccccc3oc2=O)ccn1 [CBK297917] | 90.613 |
| O=C(O)CCNS(=O)(=O)c1cccc(Cl)c1 [CBK267328] | 97.7666 |
| O=C(Nc1ccc(-c2nc3ccccc3s2)c(O)c1)c1ccc(-c2ccccc2)cc1 [CBK263979] | 109.141 |
| CC(C)(CN1C(=O)c2ccccc2C1=O)C(O)C(=O)O (stereo not shown) [CBK286582] | 105.14 |
| CCC(c1ccc(F)cc1)N(C)C(=O)Cn1cc(C(=O)NC2CCCCC2)ccc1=O (stereo not shown) [CBK286106] | 8.797 |
| C[C@H]1CN2CCCC2CN1Cc1ccc2c(c1)CCO2 (stereo partly shown) [CBK285443] | 94.7126 |
| CCOC(=O)C1=C(Nc2ccc(O)cc2)C(=O)N(C(C)(C)C)C1 [CBK005677] | 62.22 |
| COc1ccc(/C=C/C(=O)C2CC2)c(C(=O)O)c1OC [CBK286639] | 79.4377 |
| CC(=O)Nc1ccc(-c2csc(NC(=O)NS(=O)(=O)c3ccc(C)cc3)n2)cc1 [CBK297084] | 92.7486 |
| CC(Sc1nc2ccccc2c(=O)n1C1CC1)C(=O)N1CCOCC1 (stereo not shown) [CBK306045] | 73.2735 |
| COc1ccc(-n2nnnc2SCC(=O)c2ccc(O)c(O)c2)cc1 [CBK293969] | 102.885 |
| C(=N\Nc1nnnn1-c1ccccc1)/c1ccco1 [CBK007334] | 87.2669 |
| O=C(CNC(=O)c1ccc2c(c1)OCCO2)N/N=C/c1cccs1 [CBK261987] | 90.1873 |
| O=C1c2ccccc2C(=O)c2c1cccc2S(=O)(=O)N1CCN(C(=O)C2CCCO2)CC1 (stereo not shown) [CBK200038] | 0.3745 |
| CCOC(=O)c1ccc2ncc3c(=O)nc(N)sc3c2c1 [CBK291218] | 99.7351 |
| OCC[C@H]1CN2CCCC2CN1Cc1cccc(Cl)c1Cl (stereo partly shown) [CBK285429] | 84.8156 |
| Cn1ccc(N2CCCC(NC(=O)c3scnc3C(C)(C)C)C2=O)n1 (stereo not shown) [CBK305453] | 87.1028 |
| O=C(c1cc(C(F)(F)F)cc(C(F)(F)F)c1)N1CCN(Cc2ccc3c(c2)OCO3)CC1 [CBK074756] | 61.846 |

— publication PMC12040169 (PLOS Biology, 2025)
